Source: the antibiotic and cytotoxicity screens of Wong et al. (2023)
The list shows a part of the results.

Columns and labels:
HSkMC = human skeletal muscle cells; assay: cytotoxicity call (relative viability < 0.9); details: 10 µM
HepG2 = assay: cytotoxicity call (relative viability < 0.9); details: 10 µM
S. aureus RN4220 = assay: growth inhibition call (relative growth <= 0.2); details: 50 µM

COCC(=O)N(C)C[C@H]1Oc2cc(C#Cc3ccccc3)ccc2S(=O)(=O)N([C@@H](C)CO)C[C@@H]1C
inactive: cytotoxicity call (HSkMC) | cytotoxicity call (HepG2) | growth inhibition call (S. aureus RN4220)

Cc1ccc(S(=O)(=O)Nc2ccc3c(c2)C(=O)N([C@@H](C)CO)C[C@@H](C)[C@H](CN(C)C(=O)NC(C)C)O3)cc1
inactive: cytotoxicity call (HSkMC) | cytotoxicity call (HepG2) | growth inhibition call (S. aureus RN4220)

COc1ccc(NC(=O)Nc2ccc3c(c2)C(=O)N([C@@H](C)CO)C[C@@H](C)[C@@H](CN(C)C(=O)NC(C)C)OCCCC[C@H](C)O3)cc1
inactive: cytotoxicity call (HSkMC) | cytotoxicity call (HepG2) | growth inhibition call (S. aureus RN4220)

C[C@@H]1CN([C@@H](C)CO)S(=O)(=O)c2ccc(-c3ccc(C(=O)N(C)C)cc3)cc2O[C@H]1CN(C)C(=O)C1CCC1
inactive: cytotoxicity call (HSkMC) | cytotoxicity call (HepG2) | growth inhibition call (S. aureus RN4220)

C[C@@H]1CN([C@@H](C)CO)C(=O)c2cccc(NC(=O)c3cnccn3)c2O[C@@H]1CN(C)Cc1ccncc1
inactive: cytotoxicity call (HSkMC) | cytotoxicity call (HepG2) | growth inhibition call (S. aureus RN4220)

CN1CCC[C@]2(CCN(C(=O)CCn3ccc(=O)[nH]c3=O)C2)C1=O
inactive: cytotoxicity call (HSkMC) | cytotoxicity call (HepG2) | growth inhibition call (S. aureus RN4220)

C[C@@H]1CCCCO[C@H](CN(C)Cc2ccc(C(=O)O)cc2)[C@H](C)CN([C@H](C)CO)C(=O)c2cc(NC(=O)Nc3ccc4c(c3)OCO4)ccc2O1
inactive: cytotoxicity call (HSkMC) | cytotoxicity call (HepG2) | growth inhibition call (S. aureus RN4220)

C[C@@H]1CCCCO[C@H](CN(C)C(=O)CCC(F)(F)F)[C@@H](C)CN([C@@H](C)CO)C(=O)c2cc(NC(=O)Nc3ccccc3)ccc2O1
inactive: cytotoxicity call (HSkMC) | cytotoxicity call (HepG2) | growth inhibition call (S. aureus RN4220)

CC(C)NC(=O)N(C)C[C@@H]1OCCCC[C@H](C)Oc2ccc(NC(=O)Nc3ccc(C(F)(F)F)cc3)cc2C(=O)N([C@@H](C)CO)C[C@H]1C
inactive: cytotoxicity call (HSkMC) | cytotoxicity call (HepG2) | growth inhibition call (S. aureus RN4220)
